Laboratory results as given in the supplement of paper PMC10126150.
Sequences with one replicate were seen in a single cluster, so their values are uncertain.

System: ATP
Assay: switch fluorescence ratio, 500 uM ATP over buffer (Cy3 cluster intensity, sum of 5 cycles each) (fold (ratio)); higher = stronger signal-on switching upon ATP binding; sequences stand for … in TCGTCGGCAGCGTCAGATGTGTATAAGAGACAGTTTTTTTTTTTTTTTTTTTTTTTTT…TC
Conditions: aptamer strand: ATP DNA aptamer (quencher-CACCTGGGGGAGTATTGCGGAGGAAGG + anchor), 100 nM annealed; ATP concentration: 500 uM; one replicate
Outline: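 Imaging in selection buffer was followed by imaging after 15 min with 500 uM ATP at 22 °C, for Cy3-labelled switching-strand clusters annealed to 100 nM quencher-labelled ATP aptamer on a modified Illumina MiSeq flow-cell. Five of these buffer/ATP cycles ran, separated by NaOH stripping and re-annealing. The fluorescence ratio per cluster is summed target-cycle over summed buffer-cycle Cy3 intensity, averaged per switch-domain sequence; clusters outside 100-1000 RFU were removed.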
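Also: ATP exposure 15 min at 22 °C before imaging.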

Row | Sequence | switch fluorescence ratio
1 | GGTTTAGATT | 0.991
2 | TTGCCTGCGC | 1.08
3 | CTCAAACCTT | 2.42
4 | TGGATGCGGT | 0.974
5 | GTTCTGCGGC | 1.09
6 | TTCATAACTA | 1.02
7 | ATCCAGGAGC | 0.803
8 | TGCGCAGAAG | 0.971
9 | TACTATGATG | 0.992
10 | CGAGCCGGGT | 1.01
11 | AAATTCCGAA | 0.993
12 | TAATTACTTG | 1
13 | GATTTTCGAC | 0.991
14 | GACATGACAT | 1.01
15 | CGGCGGACCT | 1.11
16 | TGGTTATAT | 1.01
17 | GACCGTTACC | 1.49
18 | GGCCACCC | 1.01
19 | ATTAAAAATA | 0.999
20 | AGGGCTAACA | 0.958
21 | TGCAGCGCG | 0.958
22 | TGCACGGGCT | 1
23 | CTACGACAGC | 1.5
24 | ACGAGTGCG | 1.01
25 | CGGATTCTGA | 0.967
26 | ACGGCGTTCA | 0.983

Row | Sequence | switch fluorescence ratio
27 | TTTACCGAAG | 1.09
28 | ATCATTCCGA | 1.14
29 | GCATGAGACA | 1.01
30 | TGCGCAGACA | 1.02
31 | CTGTGCGAAG | 1.01
32 | AGCGGTGTC | 1.05
33 | GAATCCATAC | 1.24
34 | TAAGTCATAA | 1
35 | CGAAGCAGTT | 2.49
36 | TCATTTGTA | 0.927
37 | GAAAGAGTCA | 0.94
38 | CAGTGGGCAG | 1.01
39 | TGTCTAATGG | 1.01
40 | TAGTCGTGG | 0.989
41 | TGATCAGCCG | 1.01
42 | CGTGGCCAGG | 1.05
43 | TACACCAAAA | 1.1
44 | GGTCACATGT | 0.977
45 | CCTAGCTAAT | 2.08
46 | TTCTGTCTTG | 0.971
47 | GGGGGCACAT | 0.986
48 | AATCTTCGG | 0.997
49 | ACCCAGTCT | 1.07
50 | CGTCGAGAAA | 1.05
51 | CGGTTCATGC | 1.05
52 | TCTTTGGC | 1.02

Row | Sequence | switch fluorescence ratio
53 | GGATATGGT | 1
54 | GGGCGAACAT | 0.997
55 | ATGGCAGGTG | 1.02
56 | TGCAGACCTC | 1.04
57 | GGGTAGCGTC | 1.02
58 | CTGCGCGCCT | 1.04
59 | TAGAAATAGG | 1.01
60 | GTGATCTTGC | 1.01
61 | AAGTGTGAAT | 0.985
62 | GGTAGAATAT | 0.982
63 | GGAATATATG | 1.02
64 | ACCGAACGGG | 1.15
65 | GACAGGTGGT | 1.27
66 | CCGAGAAATT | 2.39
67 | GACGTTGTCG | 1.05
68 | CAACCTTAAC | 1.34
69 | GTCTCGTTTA | 0.984
70 | GCTCGGGGCC | 1.02
71 | GAAGTTGGTT | 1
72 | AATTTGTGTC | 1.04
73 | TAGGACTTGA | 0.994
74 | CTTTAAACCT | 2.86
75 | ACCCTATTAG | 1.04
76 | GTATCGTACA | 1.03
77 | ACCTACCATG | 1.24
78 | TGATTCATTT | 0.979

Row | Sequence | switch fluorescence ratio
79 | TTTTCCGTCA | 1.11
80 | AGTAGGTTTA | 0.994
81 | CAGGTGAGGG | 1.29
82 | CTTCCGGGCT | 1.34
83 | AGGCGCTATT | 0.978
84 | CGGTTTTACA | 0.973
85 | CGATATTTCA | 0.995
86 | AGTACGGAT | 0.986
87 | AACAAGGGTT | 0.944
88 | CAGAGCCATT | 0.98
89 | CAGCATTCAC | 4.6
90 | GGTTAGGTAG | 0.963
91 | AGCGCCGTGT | 1.01
92 | GTGTATTTAA | 1
93 | AAACACGTCT | 1.02
94 | GACCAGGTTG | 1.47
95 | TTCGTGGTGG | 1.03
96 | ATAAATTCAG | 1.03
97 | GCGACAGGAG | 1
98 | CGGTGTCGTG | 1
99 | GCGACAACCT | 1.93
100 | TGCGTTGAAC | 1
101 | TCACGGACAC | 1.33
102 | CGAATTATAG | 1.03
103 | CCATAATGGG | 1.01
104 | TTCCCGTATT | 1.29

Row | Sequence | switch fluorescence ratio
105 | ATCCAGGCAA | 2.34
106 | GCAATGGTTT | 1.08
107 | TCCAGTCCTA | 1.05
108 | ATAAAGACGC | 1.06
109 | GCAGGTACGA | 1.15
110 | GCCCCCTGCC | 1.22
111 | TATAGGGTAT | 0.966
112 | GGTAGGCCAA | 1.01
113 | GAGTTAGTTT | 0.997
114 | CTTTGGATAG | 0.971
115 | CGTCGATATG | 0.989
116 | GCCTGTGCTC | 1.03
117 | TGGTCGAAGA | 0.951
118 | CGGCATTTGG | 1.05
119 | GGTCATTTTG | 0.992
120 | CAACATTC | 1
121 | TCAAAATGGT | 0.99
122 | GGTTTTGAAC | 1.03
123 | GCTTCCCGGG | 1.17
124 | CTCAAAGAT | 0.967
125 | TGCTAGCCCT | 1.03
126 | GCTCTTGACT | 1.02
127 | GCATAAATAC | 1.43
128 | AGGATTCAAC | 0.989
129 | ATATGATTG | 1.04
130 | CTAGTATG | 0.961

Row | Sequence | switch fluorescence ratio
131 | GTTCCTAGGA | 1.02
132 | ACTAGTAGAT | 0.978
133 | CACAGTACGA | 1.5
134 | TAACTGTACG | 1.43
135 | GCTTTAGTAG | 1.07
136 | CCACTTACC | 1.22
137 | GGGCATATTT | 0.966
138 | GTGTTCGGGA | 1.03
139 | GGTCAGCTTG | 0.988
140 | TGGCTAGGGG | 1.73
141 | TCCAGTACAA | 1.05
142 | CATAACGTGG | 0.973
143 | TACTCTGGGT | 0.994
144 | CTGAAACTGA | 1.03
145 | CATTATTGCG | 0.994
146 | CTATCACTGT | 0.993
147 | AATATTGTTG | 0.944
148 | TCGAGGATTA | 1.05
149 | TAGGACAT | 1.01
150 | TCATACGCCG | 0.954
151 | TTCGGGAAGT | 1.01
152 | ATAAAGAATT | 0.98
153 | CATAGATCCA | 1.02
154 | GATTGCCAGC | 0.975
155 | AAAAGCGAGC | 0.987
156 | TACTGGTGAA | 1.01

Row | Sequence | switch fluorescence ratio
157 | GGTCCCTTAA | 0.993
158 | GGTCGTTGCA | 1.06
159 | GTCATTCATG | 0.945
160 | TGGATTAACT | 0.996
161 | CCACAAAAG | 1.03
162 | TTTGAATA | 1.04
163 | GCGAAACAAG | 1.04
164 | GTTAAGTCTA | 0.963
165 | GTTCCAAGGC | 1.09
166 | TGCGTGATA | 1.02
167 | GCTGTTTTCC | 0.913
168 | TACACATGTA | 1.02
169 | CCCGAGTTGA | 1.08
170 | TAGGTAGAGG | 0.985
171 | AGAACGCGTT | 0.968
172 | TGCCGAATGC | 1.17
173 | GCGTGTATT | 1.02
174 | TATCCTATAT | 1.02
175 | CGCATGTGGG | 1.04
176 | TCTCCGTGTG | 1.58
177 | GAGCGCTATA | 1.22
178 | CGCTCAATGT | 1.06
179 | TGGCATAAAA | 0.983
180 | ACCGGCCTAG | 1.1
181 | AAGTTTGGTA | 1
182 | CGGTTTGAGA | 0.953

Row | Sequence | switch fluorescence ratio
183 | GATAATTATT | 0.994
184 | AAACCGAGAC | 1.72
185 | TGATTATCAT | 0.971
186 | ATCCGGTCTA | 1.04
187 | AATGGAAACC | 1.06
188 | CCTCGGACG | 1.17
189 | AACAAATTAG | 1.02
190 | TACGGTTCG | 0.982
191 | TTGATGTTCA | 0.961
192 | GGTTTAGTTC | 0.996
193 | ACAGGTGTTG | 1.27
194 | AACCAAGAAT | 1.06
195 | ATTTTAGCAG | 1.01
196 | GACCAGAAAT | 1.01
197 | TTCGAGGAAC | 1.01
198 | TCTCCTATTG | 1.02
199 | CCTAGTTCGT | 0.979
200 | GGGTTAACGC | 1
201 | CGCGTACAAT | 1.04
